Source: a compilation of properties of binary mixtures (doi:10.1016/j.molliq.2020.112507)
The densities may have been worked out from excess volumes.

Experiment: xn = mol fraction of the nth substance listed
Conditions: 100 kPa

CCCC[n+]1ccn(C)c1.COS(=O)(=O)[O-] + CCCC#N
x1 = 1
Conditions	mass density [kg/m3]
298.15 K	1212.1
308.15 K	1205.4
313.15 K	1202

CCCC#N + CCCC[n+]1ccn(C)c1.COS(=O)(=O)[O-]
mass density [kg/m3]
Conditions	x2 = 0	x2 = 0.1117	x2 = 0.2128	x2 = 0.3714	x2 = 0.4263	x2 = 0.5115	x2 = 0.6345	x2 = 0.7161	x2 = 0.8065	x2 = 0.9072
298.15 K	786.3	–	963.9	1046	1068.5	1099.1	1135.8	–	1176.5	1196
303.15 K	781.6	888	959.8	1042.2	1064.8	–	1132.2	1152.9	–	1192.7
308.15 K	777	883.8	955.8	1038.4	1061	–	1128.6	–	1169.6	1189.3
313.15 K	772.3	879.6	951.8	1034.6	–	1088	–	1145.8	1166.1	1185.9
